Measurements: paper PMC9827817
Results are given in words; binding and its absence hold for the method and conditions named. In cells and extracts the contact can be indirect. Some results given as binding are weak or reduced against the parent protein; the word gives no strength.

Protein sequences, listed by entry. Tags and fused reporters are not part of them.
UniProt Q9ULV4: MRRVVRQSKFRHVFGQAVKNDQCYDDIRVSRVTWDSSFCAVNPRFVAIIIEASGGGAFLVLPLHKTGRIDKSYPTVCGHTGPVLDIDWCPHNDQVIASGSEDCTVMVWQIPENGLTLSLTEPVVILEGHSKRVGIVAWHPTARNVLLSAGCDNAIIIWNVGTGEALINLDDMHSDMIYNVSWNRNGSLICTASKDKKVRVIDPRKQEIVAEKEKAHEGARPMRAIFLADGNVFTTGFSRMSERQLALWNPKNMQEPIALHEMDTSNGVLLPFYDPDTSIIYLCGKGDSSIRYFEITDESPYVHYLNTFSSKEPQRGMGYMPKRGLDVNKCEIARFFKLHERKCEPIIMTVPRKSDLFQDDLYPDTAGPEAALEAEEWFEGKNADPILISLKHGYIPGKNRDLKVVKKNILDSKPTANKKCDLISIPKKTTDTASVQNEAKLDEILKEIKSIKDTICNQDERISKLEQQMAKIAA

Target: CORO1C in gastric cancer cell lysate (human (endogenous in SGC-7901 and BGC-823)) (UniProt Q9ULV4)
Test: co-IP; gastric cancer cell lysates (25 mM Tris pH 7.6, 150 mM NaCl, 1% Nonidet P-40, 1 mM EDTA); protein A agarose preloaded with antibodies or normal IgG, overnight at 4°C; western blot; some in cells overexpressing PAK4S99A or PAK4S99D

- binding: binds
B1: PAK4S99D overexpressed in gastric cancer cells (enzyme, UniProt O96013 1-591)
chain: MFGKRKKRVEISAPSNFEHRVHTGFDQHEQKFTGLPRQWQSLIEESARRPKPLVDPACITSIQPGAPKTIVRGSKGAKDGALTLLLDEFENMSVTRSNDLRRDSPPPPARARQENGMPEEPATTARGGPGKAGSRGRFAGHSEAGGGSGDRRRAGPEKRPKSSREGSGGPQESSRDKRPLSGPDVGTPQPAGLASGAKLAAGRPFNTYPRADTDHPSRGAQGEPHDVAPNGPSAGGLAIPQSSSSSSRPPTRARGAPSPGVLGPHASEPQLAPPACTPAAPAVPGPPGPRSPQREPQRVSHEQFRAALQLVVDPGDPRSYLDNFIKIGEGSTGIVCIATVRSSGKLVAVKKMDLRKQQRRELLFNEVVIMRDYQHENVVEMYNSYLVGDELWVVMEFLEGGALTDIVTHTRMNEEQIAAVCLAVLQALSVLHAQGVIHRDIKSDSILLTHDGRVKLSDFGFCAQVSKEVPRRKSLVGTPYWMAPELISRLPYGPEVDIWSLGIMVIEMVDGEPPYFNEPPLKAMKMIRDNLPPRLKNLHKVSPSLKGFLDRLLVRDPAQRATAAELLKHPFLAKAGPPASIVPLMRQNRTR
